Test results from ChEMBL document CHEMBL4888484, “Replenishing the malaria drug discovery pipeline: Screening and hit evaluation of the MMV Hit Generation Library 1 (HGL1) against asexual blood stage Plasmodium falciparum ,using a nano luciferase reporter read-out” (2022).
About 540 (0.36%) of roughly 150,000 compounds showed an effect of 50% or more. The list shows a part of the results.

Each molecule was assayed on Plasmodium falciparum (assay: Primary screen in NF54 nanoGlo assay, in single point, at 2uM, 72h; a lower Z score goes with more inhibition). Conditions: timepoint 72 hour.
Assay type: functional, Erythrocyte

Compound | % Inhibition [%] | Z score
Cc1nccn1C[C@H]1CCCN(Cc2nc(C)n3ccccc23)C1 | 7 | -0.92
CC1(C)CC(NC(=O)c2cc(C(C)(C)C)nc(=O)[nH]2)CC(C)(C)C1 | -9 | 1.5
C[C@]1(O)CCN(Cc2cc(F)ccc2C(F)(F)F)C[C@@H]1O | -9 | 1.85
Cc1cnc2c(C(=O)N3CCC(CN4CCNC4=O)CC3)cnn2c1 | -7 | 0.92
c1ccc(CCCN2CCC[C@H](CN3CCOCC3)C2)cc1 | -12 | 1
Cc1cc(-c2nc(C3CCOCC3)nn2Cc2ccccc2C)c(C)o1 | -9 | 0.99
Cc1cc2nc(-c3cc4n(n3)CCN(C(=O)[C@@H]3CC=CCC3)C4)[nH]c2cc1C | -6 | 0.76
CCOC(=O)CNC(=O)N1CCN(Cc2nc3cc(-c4ccccc4)ccc3o2)CC1 | -15 | 1.94
C[C@H](O)CN(C(=O)Nc1ccccc1N(C)C)C1CCCCC1 | -11 | 1.41
CCOC(=O)N1CCC2(CC1)N=C(c1ccc(OCC)cc1)C[C@@H](c1cc(Cl)ccc1O)N2 | -6 | 0.71
O=C(Nc1nnc(Cc2ccc(F)cc2)o1)c1sc2ccccc2c1Cl | -2 | 0.27
Nc1nnc(CCNC(=O)c2onc3ccccc23)s1 | 9 | -1.88
COC(=O)C1CCCC1C(=O)OCc1scnc1C (configuration not stated) | -1 | 0.15
COc1cccc(CN2CCC[C@@]3(CCN(Cc4ccc(C)o4)C3)C2=O)c1 | -9 | 1.35
O=C(C[C@H]1C(=O)NCCN1Cc1ccc2ccccc2c1)NC1CCCC1 | -3 | 0.63
COc1ccnc(Cn2c(=O)ccc3ccccc32)c1 | -1 | 0.13
CC(C)[C@@H](NC(=O)c1ccc(Cl)s1)C(=O)NCc1nnc[nH]1 | -8 | 0.94
CC1(C)CS(=O)(=O)N(c2cccc(C(=O)Nc3ccc4c(c3)OCCO4)c2)C1=O | -9 | 1.12
COc1cc(C(=O)NC2CCN(C)C2c2ccc(F)cc2)on1 (configuration not stated) | -2 | 0.18
O=C(NCC1CCCCC1)c1ccoc1 | 10 | -1.35
Cc1cc(N2CCC(C)CC2)n2nc(CN3CCN(C(C)C)CC3)nc2n1 | 7 | -0.96
CCc1nc(N2CCN(C(C)C)[C@@H](CC)C2)no1 | -15 | 1.89

Compound | % Inhibition [%] | Z score
Cc1cc(C)cc(NC(=O)[C@@H]2CCN(S(C)(=O)=O)c3ccccc3O2)c1 | 9 | -1.15
O=C(NCc1ncc(C(F)(F)F)cn1)c1ccc(O)nc1 | -7 | 0.74
Cc1nn(-c2nc(-c3ccc(F)cc3)cs2)c(C)c1CC(=O)Nc1ccc(F)cc1 | -1 | 0.14
CC(C)CNC(=O)/C(=C/c1cccc(Oc2ccccc2)c1)NC(=O)c1ccc(Cl)cc1 | 0 | 0.02
CCn1c2ccccc2c2ccc(N)nc21 | 4 | -0.71
Cc1ccc2nc(COc3cccc(C(=O)N4CCC[C@H]4C(C)(C)O)c3)cn2c1 | -7 | 0.95
CC1(C)COc2cc(-c3ccc(S(=O)(=O)NCCO)cc3)ccc21 | -5 | 0.86
O=S(=O)(C[C@H]1CCCO1)NCCn1cnnc1C1CC1 | 0 | -0.05
COc1ccc(Cc2nc(C3CCC3)n(-c3cccnc3)n2)cc1 | -2 | 0.3
O=C(Nc1ccc(C(F)(F)F)cc1)N1CCC[C@H](Nc2ccc3c(c2)OCCO3)C1 | 7 | -0.78
O=C(NCCc1nccs1)N1CCC([C@@H]2CCCO2)CC1 | -5 | 0.62
CCc1ccc(C(=O)N[C@H](c2cccc(C)n2)C2CC2)s1 | -10 | 1.48
Cc1noc(C2CN(Cc3ccc(Cl)cc3Cl)C2)n1 | -4 | 0.83
CC(C)=CCN1C[C@@H]2CC[C@H]1CN(C(=O)c1c[nH]c3ncnn3c1=O)C2 | -18 | 1.74
O=C(NCc1nnc2n1CCC2)c1cc(-c2ccsc2)n[nH]1 | -22 | 2.68
O=C(c1ccsc1)N1CCN(c2ccccn2)CC1 | 0 | -0.03
Cc1ccnc2nc(C(=O)N3CCOC[C@@]3(C)C3CC3)nn12 | -5 | 0.78
CS(=O)(=O)C[C@H](O)c1cc2n(n1)CCN(Cc1nc3ccccc3[nH]1)C2 | 1 | -0.19
Cn1cc(Br)cc1C(=O)NCCCO | -8 | 1.29
Cn1cccc1C(=O)C(=O)NCc1ccco1 | -14 | 1.33
CCc1nn(C)c2c(=O)n(Cc3ccc4nonc4c3)cnc12 | 0 | 0.03
CN1c2cccnc2CN(Cc2cccnc2)CC[C@H]1CO | 25 | -2.81

Compound | % Inhibition [%] | Z score
O=C(Cn1[nH]c2ccccc2c1=O)NCCOCCO | -11 | 1.82
Cc1nnc(NC(=O)C2(CF)CCC2)s1 | -5 | 0.65
Cc1cccc2c1O[C@H](c1nc(C3CCOCC3)no1)C2 | -3 | 0.33
CCCS(=O)(=O)NCCn1nc(-c2ccncc2)c2c1CCCC2 | -4 | 0.51
O=C(Nc1ccc2c(c1)OCO2)c1cnc2ccccc2n1 | -13 | 1.72
O=C(c1ccc(-c2ccco2)[nH]c1=O)N1CCC(n2cccn2)CC1 | 0 | -0.02
CC(C)n1ccnc1CN1CC[C@H](CNC(=O)c2ccsc2)C1 | -11 | 1.88
CC(C)CNC(=O)c1[nH]cnc1C(=O)N1CCC(Cc2ccccc2)CC1 | 31 | -3.65
FC(F)(F)c1nc(NCCN2CCCOCC2)c2nc[nH]c2n1 | -14 | 2.11
Cc1nnsc1C(=O)NC[C@H](O)Cn1ccccc1=O | 23 | -2.94
Cn1nnnc1CCNC(=O)N1CCC2(C=Cc3ccccc3O2)CC1 | -10 | 0.93
CCCc1nc2nc(C)nn2c(O)c1NC(=O)Nc1cccc(F)c1 | 0 | -0.01
OC1(c2ccc(-c3cnc4c(c3)CCCO4)cc2)CCC1 | -20 | 3.25
CC(C)c1nc(C2CN(C(=O)Nc3cc(F)cc(F)c3)C2)n(C)n1 | -6 | 0.96
C[C@@H](O)CNC(=O)NC1CCC(Cc2ccccc2)C1 (some centres not stated) | -10 | 1.05
Cc1cc(C)n(-c2ccc(C(=O)N3CCCC[C@H]3c3nc(C)no3)cc2)n1 | -5 | 0.92
COc1cccc(Cn2cccc2CN(Cc2ccccc2)C(=O)CN(CC(C)C)C(=O)c2ccc(C(C)(C)C)cc2)c1 | -23 | 3.1
Cc1oc(-c2ccc3ccccc3c2)nc1CN1CCC2(CC1)CNC(=O)C2 | -9 | 1.04
COc1ccc(OC)c(Cc2nnc(CCC(=O)NC3CCCCC3)o2)c1 | -10 | 1.38
C#CC(C)NC(=O)[C@@H]1CCC[C@@H]1CNC(=O)OC(C)(C)C (some centres not stated) | -10 | 1.99
COc1ccc(-n2nc(C3CCCC3)nc2CCS(C)(=O)=O)cc1 | 4 | -0.82
Cc1nc2ccccn2c1CNC(=O)[C@H]1CCO[C@@H]1c1cccnc1 | -16 | 1.81

Compound | % Inhibition [%] | Z score
COc1ccc(C(C)CC(=O)N2CCCC(c3nnn[nH]3)C2)cc1 (configuration not stated) | 4 | -0.64
CCCNC(=O)CN1C(=O)[C@H]2CCCC2=Nc2cc(C)c(C)cc21 | 19 | -2.11
O=C(NCC1(c2cccs2)CC1)c1ccc(S(=O)(=O)N2CCOCC2)cc1 | -7 | 1.31
Cc1nn(-c2nc3ccccc3[nH]2)c2c1[C@H](c1ccc(C(C)(C)C)s1)CC(=O)N2 | 0 | 0.03
CON(Cc1c(Cl)cncc1Cl)CC1CCOCC1 | -8 | 1.14
O=C(N[C@@H](N1CCCC1)C(Cl)(Cl)Cl)c1ccccc1Cl | -7 | 0.85
O=C(Nc1nnc(C(F)F)s1)c1n[nH]c2ccccc12 | -11 | 1.93
O=C(CN1C(=O)COc2ccc(Cl)cc21)NCCCN1CCOCC1 | -6 | 0.76
CC(CNC(=O)C(C)NC(=O)C1CCC1)Oc1ccc(Cl)cc1 (configuration not stated) | 5 | -0.87
CCN(CC)C(=O)N1CCC(C(=O)Nc2c(C)n(C)n(-c3ccccc3)c2=O)CC1 | -6 | 0.52
CCC[C@]1(CO)CCCN(Cc2cncn2C)C1 | 2 | -0.21
CCCCN1CCN(S(=O)(=O)c2cc(-c3nnc(C4CCCC4)o3)co2)CC1 | 7 | -0.87
N#Cc1cnc2ccc(Cl)cc2c1N1CCC(Cc2ccccc2)CC1 | 4 | -0.52
O=C(NCc1ccccc1)c1nn(-c2ccc(Cl)cc2)c(=O)n(Cc2ccccc2F)c1=O | 5 | -0.62
O=C1N(CC2CCC2)CCC[C@@]12CCN(Cc1noc(C3CCCC3)n1)C2 | -15 | 2.33
CCc1c(N[C@@H](C)c2cnn(C)c2)cnn1CC(C)C | -6 | 0.65
COc1ccc(OC)c(CNc2nncn2C2CC2)c1 | -14 | 2.03
N#CCC1(CNC(=O)N2CCCC2C2CCCO2)CC1 (configuration not stated) | -9 | 1.26
O=C(Oc1ccc(OCC2CC2)cc1)c1cnccn1 | -3 | 0.26
O=C(CNC(=O)C1CCCCC1)NCCCN1CCOCC1 | -4 | 0.56
